# Results reported in the RNAGym collection of RNA variant scans (doi:10.1093/nar/gkz1192).
# The source gives no read counts; variants with many changes may rest on few reads.
# B1: CPEB3 Ribozyme (parent)
# chain: UAACAGGGGGCCACAGCAGAAGCGUUCACGUCGCAGCCCCUGUCAGAUUCUGGUGAAUCUGCGAAUUCUGCUGUAUAUCUC
# Variants of: B1
# Assay: self-cleavage, relative activity (ratio to wild type); higher = more cleavage; in vitro, sequencing
# Method in brief: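 CPEB3 self-cleaving ribozyme mutant libraries were made by rounds of error-prone PCR, barcoded, and transcribed in vitro with T7 RNA polymerase for 5 hours at 37°C. Cleavage occurred during transcription and a 15 min DNase I step before EDTA stop. RNAs were reverse transcribed with template switching and Illumina-sequenced, with DNA sequencing mapping barcodes to variants. Relative activity is the variant's cleaved/total read fraction divided by wild type's (minimum 5 reads), averaged across three batches.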
row,Variant,self-cleavage
1,U41C U43A U48A G55A,0.2
2,U41C U43A U49C U69C,0.23
3,U41C U43A U72G,0.44
4,U41C U43A U78C,0.66
5,U41C U43C A47G,0.36
6,U41C U43C A47G U49A,0.16
7,U41C U43C A57C A64U,0.06
8,U41C U43C A57G,0.24
9,U41C U43C A75G,0.43
10,U41C U43C G61U U69A,0.14
11,U41C U43C U49C U74C,0.27
12,U41C U43C U51C,0.46
13,U41C U43C U51C A64U,0.17
14,U41C U43C U51C U54A A57G U67C U74A,0.24
15,U41C U43C U54A U80A,0.58
16,U41C U43C U54C U69C,0.16
17,U41C U43C U54C U78A,0.16
18,U41C U43C U69A U76C,0.2
19,U41C U43C U69C,0.35
20,U41C U43C U72A A77G,0.42
21,U41C U43C U72C U80C,0.72

row,Variant,self-cleavage
1,U41C U43C U76A U80C,0.43
2,U41C U43C U80A,0.44
3,U41C U43G U48C U78C,0.08
4,U41C U48C A64G U74C A75G,0.27
5,U41C U48C A64U,0.33
6,U41C U48C U49C,0.18
7,U41C U48C U54A U58C,0.32
8,U41C U48C U58C,0.39
9,U41C U48C U60A A65G,0.27
10,U41C U48C U60A U72G,0.25
11,U41C U48C U60G G70A,0.24
12,U41C U48C U74C,1.08
13,U41C U48C U78C,0.8
14,U41C U48G A56G U58C,0.6
15,U41C U48G U78C,0.34
16,U41C U49A A57G U67C,0.16
17,U41C U49A A64G U67C U74C,0.47
18,U41C U49A U60A A64U U78C,0.1
19,U41C U49A U69C,0.33
20,U41C U49C A56G U60C A75G U80A,0.44
21,U41C U49C A64G,0.2

row,Variant,self-cleavage
1,U41C U49C A64U U66C,0.08
2,U41C U49C C50A U80A,1.16
3,U41C U49C G73U A77U,0.88
4,U41C U49C U54A G63U U67C U76C,0.15
5,U41C U49C U60C U69C,0.13
6,U41C U49C U66C,0.19
7,U41C U49C U76C,0.51
8,U41C U49C U80A,0.81
9,U41C U51A A65G,0.6
10,U41C U51A A75G,1.15
11,U41C U51A U54A U67C C71A,0.71
12,U41C U51A U54C,1.14
13,U41C U51A U67G G70A U72A,0.35
14,U41C U51C A56G,0.75
15,U41C U51C A56G A64G,0.36
16,U41C U51C A57G G61C,0.47
17,U41C U51C U54C,0.89
18,U41C U51C U54G U58C U60C,0.35
19,U41C U51C U54G U58C U60C A64G,0.29
20,U41C U51C U66C,0.54
21,U41C U51C U72C U80A,1.17

row,Variant,self-cleavage
1,U41C U51C U74C U78C,1.24
2,U41C U51G A65G A75U,0.31
3,U41C U54A A57G U69C,0.46
4,U41C U54A U60C,0.8
5,U41C U54A U67A U69C U78C,0.44
6,U41C U54C A56G C59U U72A,0.4
7,U41C U54C A56G G63A,0.44
8,U41C U54C A56G U69C,0.16
9,U41C U54C A57G A65U,0.1
10,U41C U54C A57G U60C U76C,0.11
11,U41C U54C A64G,0.68
12,U41C U54C A64G U67C,0.12
13,U41C U54C A65G,0.39
14,U41C U54C G70U,0.21
15,U41C U54C U69C U80C,0.39
16,U41C U54G A57G,0.51
17,U41C U58A C62A,0.24
18,U41C U58A U67C,0.36
19,U41C U58C U67C A75G,0.4
20,U41C U58C U76C,0.75
